# In all, about 130,000 compounds went through this assay and about 550 (0.42%) were called active. Inconclusive means that the source gave no clear call. Such entries were picked first, then a sample of the others. Calls come from the whole dose curve; as a rule, active = well fitted inhibition curve with a large enough effect; inconclusive = small, poorly fitted or top-dose-only effect, or effect the other way; inactive = flat fitted curve, though single readings scatter. No potency is given beside an inconclusive call; the fits are too rough.
# Assay: qHTS Assay for Inhibitors of the ERK Signaling Pathway using a Homogeneous Screening Assay; Stimulation with EGF; note: nearly all actives have a fitted effect of over 55% in size;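 for activity change, negative = inhibition: plate controls were stimulated vehicle wells for no effect and unstimulated vehicle basal for full effect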
# Conditions: HEK293-V1b, EGF-stimulated phospho-ERK AlphaScreen; activity change, negative = inhibition: at the top concentration
# In short: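 V1b-HEK293, 1% FBS o/n; cpd 30 min 37C; EGF 25 nM final, 5 min; lyse 10 min; AlphaScreen beads 5 h RT. Normalized DMSO basal vs EGF max; Hill AC50.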
# Potency is the fitted concentration of half-maximal effect; tags give direction and shape of the fitted curve.
Compound,Potency,"activity change, negative = inhibition"
CCCOc1ccc(/C=N/Nc2ccccc2[N+](=O)[O-])c(OCCC)c1,active: 11.2 µM,–
COc1ccc(NC(=O)N2CCC3(CC2)CCN(C(=O)c2cccc(F)c2)CC3)cc1,–,inactive: 0.773%
COC(=O)c1sc(-c2ccc(C(C)(C)C)cc2)cc1NC(=O)/C=C/C(=O)O,"inconclusive [inhibitor, single point]",–
O=S(=O)(O)c1cccc(N=Nc2c(O)ccc3ccccc23)c1,"inconclusive [inhibitor, single point]",–
Cc1ccc(OCC(=O)c2cc(C)n(Cc3cccs3)c2C)c([N+](=O)[O-])n1,"inconclusive [inhibitor, single point]",–
CC(=O)Nc1ccc(N2C(=O)CSC2c2cccc([N+](=O)[O-])c2)cc1 (centres undefined),–,inactive: 13%
CN(Cc1ccccc1)C(=O)c1nc2ccccn2c1CNCCn1cccn1,"inconclusive [inhibitor, single point]",–
Cc1c(O)ccoc1=O,"inconclusive [inhibitor, single point]",–
Cc1cc(Br)c2c(c1)/C(=C/C(=O)c1cccs1)C(=O)N2,"inconclusive [inhibitor, partial curve]",–
COc1cc(C2CC(=O)Oc3c(C(CCN4CCN(c5ccccc5)CC4)c4ccc(N(C)C)cc4)c(OC)cc(OC)c32)cc(OC)c1OC (centres undefined),"inconclusive [inhibitor, partial curve]",–
COC1=C(Nc2ccc(OC)cc2)C(=O)c2ccccc2C1=O,active: 12.6 µM,–
FC(F)(F)c1ccc(/C=N/N2CCN(Cc3ccccc3)CC2)cc1,"inconclusive [inhibitor, single point]",–
C(=N\N1CCN(Cc2ccccc2)CC1)/c1ccc(-c2ccccc2)cc1,"inconclusive [inhibitor, partial curve]",–
Cc1nc(/N=C(\N)NC(=O)NC2CCCCC2)nc2ccccc12,"inconclusive [inhibitor, single point]",–
O=C(Nc1ccccc1)Nc1ccc2nnsc2c1,–,inactive: 9.68% [at 57.5 µM]
COc1ccc(CNc2ncnc3cc(Cl)ccc23)cc1OC,–,inactive: -4% [at 57.5 µM]
O=S(=O)(c1ccccc1)N1CCN=C1SCc1cccnc1,"inconclusive [inhibitor, single point]",–
COc1cccc(Cn2c(=O)c(-c3ccc(F)c(F)c3)nc3cncnc32)c1,"inconclusive [inhibitor, partial curve]",–
C=Cc1c(C)c2cc3nc(cc4[nH]c(cc5nc(cc1[nH]2)C(C)=C5CCC(=O)O)c(CCC(=O)OC)c4C)[C@@]1(C)C3=CC=C(C(=O)OC)[C@H]1C(=O)OC (tested in a mixture with another compound),"inconclusive [activator, partial curve]",–
COc1ccc(C(=O)N2CCC3(CCN(Cc4ccccc4OC)CC3)CC2)cc1,–,inactive: 5.93%
COC(=O)c1sc2nc(C)nc(SCC(=O)C(C)(C)C)c2c1C,–,inactive: -0.687%
COc1ccc(CNC(=O)c2c(C)nc3ccccn23)cc1,–,inactive: 2.51%
CC1=NN(c2ccc([N+](=O)[O-])cc2)C(=O)C1[N+](=O)[O-] (centres undefined),–,inactive: 6.99%

Compound,Potency,"activity change, negative = inhibition"
COc1cc(C(=O)Nc2nc(-c3ccc(C)cc3)cs2)ccc1OCC(=O)N1CCOCC1,"inconclusive [inhibitor, single point]",–
C/C(=N\Nc1cc(N2CCOCC2)nc(C)n1)c1cccc([N+](=O)[O-])c1,"inconclusive [inhibitor, single point]",–
O=C(/C=C/c1ccco1)NCc1ccc2c(c1)OCO2,"inconclusive [inhibitor, full curve, poor fit]",–
O=C(Cc1ccccc1)NC(=S)Nc1ccc(N2CCCCC2)cc1,"inconclusive [inhibitor, partial curve]",–
COc1ccc2c(c1)OCC(Cc1ccc(O)c(OC)c1)C2=O (centres undefined),–,inactive: -44.2%
CCO[C@@H]1OC(C(=O)NCc2nc3ccccc3[nH]2)=C[C@H](c2ccc(C(F)(F)F)cc2)[C@H]1CCCO,–,inactive: -12.4% [at 57.5 µM]
O=C(Nc1nnc(-c2ccco2)o1)c1ccc([N+](=O)[O-])s1,–,inactive: -9.57%
O=C(NNc1nc2ccc(F)cc2s1)c1cccc(F)c1,–,inactive: -1.17%
Oc1[nH]c2ccc(Br)cc2c1N=NC(=S)NCC1CCCO1 (centres undefined),"inconclusive [inhibitor, partial curve]",–
CC(NC(=O)OCc1ccccc1)C(=O)N1CC(O)CC1C(=O)O (centres undefined),–,inactive: -2.01% [at 57.5 µM]
COc1ccc(/C=N/NC(=O)C(C)Sc2ccccn2)cc1[N+](=O)[O-] (centres undefined),"inconclusive [inhibitor, partial curve, poor fit]",–
C[C@]1(c2ccccc2)OC(C(=O)O)=CC1=O,–,inactive: -0.152%
O=C(Nc1ccc(Cl)c(Cl)c1)Nc1ccccc1NS(=O)(=O)c1cccs1,"inconclusive [inhibitor, single point]",–
CCCCC1=NN(C(=O)c2cocc2C)C(O)(C(F)(F)F)C1 (centres undefined),–,inactive: 2.01%
Cc1csc2c(N3CCN(C(=O)c4ccc(C(C)(C)C)cc4)CC3)ncnc12,active: 28.2 µM,–
Cc1cc(N/N=C/c2cccc(F)c2)nc(NCc2ccccc2)n1,"inconclusive [inhibitor, single point]",–
COC1=C(C(=O)c2ccccc2)C(=O)C2(CC=C(C)C)C[C@H](C(=O)OCC(F)(F)F)C(C)(C)[C@@]1(CC=C(C)C)C2=O (tested in a mixture with another compound),–,inactive: -1.22%
CCOC(=O)C1(Cc2cccc(OC)c2)CCN(C2CCOCC2)CC1,"inconclusive [inhibitor, single point]",–
COc1ccc(-c2nc(CN3CCN(c4ncnc5ccccc45)CC3)c(C)o2)c(OC)c1,"inconclusive [inhibitor, single point]",–
COc1ccc(C(=O)N2CCC3(CCCN(c4ccccc4)C3)CC2)cc1,"inconclusive [inhibitor, single point]",–
O=c1cc(-c2ccccc2)nc(/C=C/c2ccccc2)[nH]1,"inconclusive [inhibitor, single point]",–
Cc1nn(-c2ccccc2)c(C)c1/C=N/N1CCN(Cc2ccccc2)CC1,"inconclusive [inhibitor, partial curve]",–
CC(C)c1ccccc1-n1c(SCc2cc(=O)oc3ccc4ccccc4c23)nnc1-c1cccnc1,"inconclusive [activator, full curve, poor fit]",–

Compound,Potency,"activity change, negative = inhibition"
COc1nc2c(c(-c3cc(Br)cs3)c1C#N)Cc1ccccc1-2,"inconclusive [activator, partial curve]",–
COc1ccc(N2CCC(CNC(=S)Nc3c(C)cc(C)cc3C)C2)cc1 (centres undefined),active: 8.91 µM,–
Cc1ccc(OCC(=O)Nc2ccc(N3CCN(C(=O)c4ccco4)CC3)cc2)cc1,"inconclusive [inhibitor, single point]",–
O=C(CCCN1C(=O)/C(=C/c2cccs2)SC1=S)Nc1ccccn1,–,inactive: 3.17%
COc1ccc(NC(NC(=O)c2cccnc2)C(Cl)(Cl)Cl)cc1 (centres undefined),–,inactive: 4%
O=C(CC(=O)c1cccc([N+](=O)[O-])c1)Nc1ccccc1Cl,"inconclusive [inhibitor, partial curve]",–
C=C(C)CN(CC)C(=O)CSc1nc(O)cc(=O)n1C1CCCC1,–,inactive: -19.3%
CCOCCCn1cc(C(=O)c2cc(Br)ccc2O)cc(C#N)c1=O,–,inactive: 2.44%
CN(C)c1ccc(-c2cncnc2NCc2cccs2)cc1,"inconclusive [inhibitor, single point]",–
Cn1c(SCC(=O)Nc2ccccc2)nnc1-c1ccc(NC(=O)CCc2ccccc2)cc1,"inconclusive [inhibitor, partial curve]",–
CN(C)CCN(Cc1ccccc1)c1ccccn1,"inconclusive [inhibitor, single point]",–
O=c1c(-c2cc(F)cc(F)c2)nc2cnc(Oc3ccccc3)nc2n1C1CC1,"inconclusive [inhibitor, single point]",–
O=C(Nc1ccc(N2CCOCC2)c(Cl)c1)c1ccc(Cl)cc1,"inconclusive [inhibitor, single point]",–
O=S(=O)(c1cccc(-c2csc(N/N=C/c3ccco3)n2)c1)N1CCOCC1,"inconclusive [inhibitor, single point]",–
O=C(CN1CCN(c2ccccn2)CC1)Nc1cccc(S(=O)(=O)N2CCCC2)c1,"inconclusive [inhibitor, single point]",–
CCN1CCc2c(sc(NC(=S)NC(=O)c3ccco3)c2C(N)=O)C1,–,inactive: -10% [at 57.5 µM]
O=S1(=O)CCC(N=Nc2c(O)n(Cc3ccccc3)c3ccccc23)C1 (centres undefined),"inconclusive [inhibitor, full curve, poor fit]",–
CCOCCCNC1=C(Cl)C(=O)c2ccccc2C1=O,"inconclusive [inhibitor, partial curve]",–
O=C(CNCc1cccs1)Nc1ccc(N2CCCCCC2)cc1,"inconclusive [inhibitor, single point]",–
COc1ccc(OC)c(NC(=O)CSc2nc3ccccc3c(=O)n2CCNC(C)=O)c1,–,inactive: 2.83%
N[C@@H]1CONC1=O,"inconclusive [activator, single point]",–
Cc1c(CCOC(=O)CC23CC4CC(CC(C4)C2)C3)sc[n+]1CC(=O)c1ccccc1,"inconclusive [inhibitor, single point]",–
O=C(Nc1ccc(Cl)c(Cl)c1)Nc1nnc(-c2ccncc2)s1,–,inactive: -7.45%
